PubChem BioAssay AID1508624 (National Center for Advancing Translational Sciences (NCATS), 2021)
Out of some 48,000 compounds screened, about 120 (0.25%) were called active. Roughly 4% stayed inconclusive and do not appear here. Calls follow the shape of the dose curve; as a rule, active = well fitted activation curve with a large enough effect; inconclusive = small, poorly fitted or top-dose-only effect, or another doubt; inactive = no such curve, though single readings can be large or run the other way. The list shows a part of the results.

Test: Primary qHTS for Identification of Small Molecule Activators of Huntingtin-Antisense Promoter Activity; also: nearly all actives have a fitted effect of over 55% in size
Conditions: HEK293 HTT-AS promoter firefly luciferase reporter (activity 0% = vehicle and -100% = no light), 24 h; series mostly up to 57.5 µM; activity change, positive = activation: at the top concentration
Summary of the method: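 HEK293 luciferase promoter-reporter cells (2,500/well) plated 24 h, then compounds added at up to 57.5 uM final for 24 h at 37 °C. Firefly luminescence by Dual-Glo, normalized to vehicle (0%) and zero RLU (-100%).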

Activity change, positive = activation, inactive:
O=C(CCCn1ccc2cc(S(=O)(=O)N3CCCC3)ccc21)NCc1ccc(Cl)cc1 -35.9%
CCc1ccc(C2CC(=O)NC(NC(=O)c3ccc(C(C)(C)C)cc3)=N2)cc1 (stereo unspecified) 9.89%
Cc1c(-c2ccccc2)c(=O)oc2c(CN3CCCC3)c(O)ccc12 -4.5%
CCOc1ccc(/C=C/c2nc(C#N)c(Nc3ccc(OCC)cc3)o2)cc1 0.599%
Cc1nc2ccn(Cc3ccccc3)c(=O)c2cc1C(=O)NCc1ccccc1F -22.4%
COc1ccc(NC(=O)Nc2cccc(-c3cn4cccnc4n3)c2)cc1 26.2%
O=C(NCCc1ccc(Cl)cc1)c1ccc2c(c1)N(Cc1ccccc1F)C(=O)c1ccccc1S2(=O)=O 6.25%
COC(=O)c1ccccc1NC(=O)CCc1c(C)nc2c(c(C)nn2-c2ccccc2)c1C 3.42%
COc1ccc(Cn2ccc3nc(C)c(C(=O)NCc4ccc(OC)cc4OC)cc3c2=O)cc1 -7.34%
COc1cccc(CNC(=O)CCCn2nc(C)n3c(cc4sccc43)c2=O)c1 1.3%
COc1ccc(C2CC(=O)c3c([nH]c(C(=O)OC4CCCCCC4)c3C)C2)cc1OC (stereo unspecified) -31.1%
CCN(C(=O)c1nn(-c2ccc(C)cc2)c(=O)c2c1c1ccccc1n2C)c1ccc(F)cc1 -1.32%
Cc1cccc(OCC(=O)N(Cc2ccc(C(C)C)cc2)Cc2ccco2)c1C -23.9%
O=C(Nc1nnc(S(=O)(=O)N2CCCC2)s1)c1ccccc1F 1.93%
Cc1ccc(N2CC(NC(=O)c3ccco3)CC2=O)cc1C (stereo unspecified) -12.2%
O=C(NCCc1ccccc1)c1ccc(CSc2nc3ccncc3n2Cc2ccccc2F)cc1 1.2%
CC(C)COc1ccc(-c2nonc2NC(=O)c2ccc(F)cc2)cc1 -20.3%
O=C(Cn1ncc2c([nH]c3ccccc32)c1=O)NCc1cccc(Cl)c1 -19.8%
CCOC(=O)c1cnc2c(C)cc(Cl)cc2c1NCCc1ccc(OC)c(OC)c1 -12.9%
CCOC(=O)c1cc(-c2ccc(F)cc2)n(CCC(=O)NCc2ccccc2OC)c1C -35%
COc1ccc(NC(=O)C(C)n2c(C)c3cnn(-c4ccccc4)c(=O)c3c2C)cc1Cl (stereo unspecified) -26.6%
COc1ccc(C(=O)Nc2nnc(S(=O)(=O)N3CCC(C)CC3)s2)cc1OC -11.7%
O=C(c1cccc(F)c1)N1CCC(c2c[nH]c3ccccc23)(c2c[nH]c3ccccc23)CC1 -34.1%
CCN(C(=O)C1CCCN(c2ncnc3onc(-c4ccc(F)cc4)c23)C1)c1ccccc1 (stereo unspecified) -4.12%
O=C(NCC1CCCO1)c1c[nH]c2ccc(S(=O)(=O)Nc3ccc(F)cc3F)cc2c1=O (stereo unspecified) 6.72%
CCOc1ccc(NC(=O)NCCn2nnc3cc(S(=O)(=O)N(C)C)ccc32)cc1 -3.98%
CC(C)(C)c1ccc(-c2nc(S(=O)(=O)c3ccccc3)c(N3CCOCC3)o2)cc1 -22.2%
CC1CCCCN1Cc1c(O)ccc2c(=O)c(-c3ccccc3)coc12 (stereo unspecified) -12.4%
Cc1ccc(CNC(=O)c2sc3nc(-c4ccc(F)cc4)ccc3c2N)cc1 -4.34%
CCOC(=O)C1=C(CN2CCCCC2)NC(=O)NC1c1ccc(C)cc1 (stereo unspecified) -10.9%
COc1cccc(CNS(=O)(=O)c2ccc(N3CCCCS3(=O)=O)cc2)c1 -18.2%
CCOc1ccc(C(CC(=O)Nc2cc(C)c(Cl)cc2OC)N2Cc3ccccc3C2=O)cc1OC (stereo unspecified) -22.4%
Cc1cc2n(n1)CCC(=O)N2Cc1ccc(C(=O)Nc2ccc(Br)c(C)c2)cc1 -13.7%
COC(=O)c1c(NC(=O)COc2c(C)ccc(C)c2C)sc2c1CCC(C)C2 (stereo unspecified) -7.35%
Cc1ccc(-n2nc(C(=O)Nc3cccc(C#N)c3)c3c4ccccc4n(C)c3c2=O)cc1 9.37%
CC1=C(C(=O)Nc2cccnc2)C(c2ccc(Cl)cc2)n2nc(SCc3ccccc3)nc2N1 (stereo unspecified) -8.2%
CCN(CC)c1cc2c(cc1F)c(=O)c(S(=O)(=O)c1ccc(C)cc1)cn2Cc1ccc(F)cc1 -7.42%
CCOc1ccc(NC(=O)[C@H](Cc2ccccc2)N2Cc3ccccc3C2=O)cc1 -17.2%
O=C(Cn1ncc2ccsc2c1=O)N1CCN(c2ccccc2)CC1 -3.17%
CCCSc1nc2c(c(=O)[nH]1)C(c1ccc(F)cc1F)CC(=O)N2 (stereo unspecified) -21.5%
O=C(NCCc1ccc(Cl)cc1)c1nc(-c2cccc(F)c2)n2c1CCCCC2 -26.6%
CCCN1CCN(c2ncnc3sc(C(=O)Nc4cccc(Cl)c4C)c(C)c23)CC1 -12.5%
O=C(CC1N=C2c3ccccc3N=C(SCc3ccccc3Cl)N2C1=O)NCc1cccs1 (stereo unspecified) 4.74%
CCc1cnn2c(NCc3ccc[n+]([O-])c3)cc(N3CCCC[C@@H]3CCO)nc12 -38.4%
COc1ccc(C(=O)NNc2ncnc3c2cnn3-c2ccccc2)cc1 -12.7%
CCOC(=O)C1CCCN(Cc2cn3c(-c4ccc(Br)cc4)nnc3s2)C1 (stereo unspecified) -21.7%
CCOc1ccc(NC(=O)Cc2ccc(-n3c(C)nc4cccnc43)cc2)cc1 -12.8%
CC(=O)N1CCC(N(Cc2ccco2)C(=O)Nc2ccc(Br)cc2F)CC1 -1.69%
Cc1ccc(NC(=O)CN2C(=O)c3ccccc3Sc3ccc(C(=O)N4CCCC4)cc32)cc1 -27.8%
CCN(CC)CCNC(=O)c1[nH]c2ccccc2c1Sc1ccc(Cl)cc1 -3.46%
O=C(Nc1cc(Cl)ccc1Cl)c1cc(S(=O)(=O)N2CCCc3ccccc32)ccc1F -19.6%
CN(C(=O)c1ccc2c(c1)N(Cc1ccccc1F)C(=O)c1ccccc1S2(=O)=O)C1CCCCC1 -35.4%
COc1ccc(NC(=O)C(NC(=O)/C=C\c2ccc3c(c2)OCO3)c2ccc(OC)cc2)cc1 (stereo unspecified) -4.55%
COc1cc(NC(=O)c2nn(-c3ccc(F)cc3)c(=O)n(C)c2=O)cc(OC)c1OC 2.8%
CCn1c(C(=O)N2CCC(C(=O)NCCCOC)CC2)cc2sccc21 -5.11%
Cc1cc(C)c(/C=C/c2onc(C)c2S(=O)(=O)N2CCC(C(=O)Nc3ccc(Cl)cc3C)CC2)c(C)c1 26.2%
O=C(COCc1cc(-c2cccs2)on1)NCc1cccc(Cl)c1 -8.96%
CC(C(O)c1ccc(O)cc1)N1CCC(Cc2ccccc2)CC1 (stereo unspecified) -7.94%
Cc1cn(S(=O)(=O)c2ccc(F)c(Cl)c2)cn1 -6.1%
COc1ccc(NC(=O)CSc2nc3c(c(=O)[nH]2)CCC3)cc1 -4.25%
CCC1CCc2nc3sc(C(=O)Nc4ccc(F)c(F)c4)c(N)c3cc2C1 (stereo unspecified) 14.2%
